Data reported in PubChem BioAssay AID493035 (The Scripps Research Institute Molecular Screening Center, 2011).
About 45 (2%) of roughly 2,000 compounds were called active.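 The calls were made as follows: active = inhibition above the mean of all tested compounds plus 3 SD (cut at about 49% in these data); inactive = the rest.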 The list shows a part of the results.

target: Perilipin-5 (Homo sapiens) + 1-acylglycerol-3-phosphate O-acyltransferase ABHD5 (Homo sapiens) (UniProt Q00G26+Q8WTS1); assay: ABHD5-PLIN5 interaction inhibitors, pilot screen, cell lysate, split luciferase complementation, luminescence, NIH validation set (AID 493035);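 also: 0% = DMSO only wells while the 100% control is not stated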; conditions: split G. princeps luciferase complementation, lysates, 4 h; at 7.9 µM, hits give high values
Chain of UniProt Q00G26 (Q00G26 whole entry, looked up): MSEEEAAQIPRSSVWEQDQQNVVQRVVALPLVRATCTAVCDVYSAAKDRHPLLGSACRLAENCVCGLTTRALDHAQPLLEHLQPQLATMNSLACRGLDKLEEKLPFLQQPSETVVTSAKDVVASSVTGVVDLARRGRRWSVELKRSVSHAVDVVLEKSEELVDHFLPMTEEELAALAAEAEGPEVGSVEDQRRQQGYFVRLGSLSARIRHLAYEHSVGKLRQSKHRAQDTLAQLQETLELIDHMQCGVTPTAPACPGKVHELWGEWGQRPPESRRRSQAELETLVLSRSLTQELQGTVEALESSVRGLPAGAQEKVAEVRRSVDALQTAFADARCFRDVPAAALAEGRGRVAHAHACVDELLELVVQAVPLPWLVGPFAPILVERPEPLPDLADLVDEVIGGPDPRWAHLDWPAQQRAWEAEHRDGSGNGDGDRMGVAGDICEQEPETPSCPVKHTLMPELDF
Chain of UniProt Q00G26 (Q8WTS1 whole entry, looked up): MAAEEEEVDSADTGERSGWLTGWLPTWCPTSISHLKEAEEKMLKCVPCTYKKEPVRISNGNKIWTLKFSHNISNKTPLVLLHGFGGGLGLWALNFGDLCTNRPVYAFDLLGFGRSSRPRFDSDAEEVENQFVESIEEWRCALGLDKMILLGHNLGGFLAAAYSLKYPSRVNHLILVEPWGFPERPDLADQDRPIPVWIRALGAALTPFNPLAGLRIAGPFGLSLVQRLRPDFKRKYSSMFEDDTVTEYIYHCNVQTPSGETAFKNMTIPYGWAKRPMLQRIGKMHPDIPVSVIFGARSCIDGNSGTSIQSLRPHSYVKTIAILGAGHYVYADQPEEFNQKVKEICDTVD

inhibition, inactive:
CCOC(=O)c1ccc(NC(=S)NCCc2ccccc2F)cc1 -13.2%
NC(=O)N1c2ccccc2CC(=O)c2ccccc21 -2.58%
CC12CCC(C(=O)Nc3ccccc3Br)(C/C1=N\O)C2(C)C (configuration not stated) -6.37%
CC12CCC(C(=O)N3CCc4ccccc43)(CC1=O)C2(C)C (configuration not stated) -4.02%
CC12COC3(C(=O)Nc4ccc(F)cc4)CC1CCC32C (configuration not stated) -5.49%
O=Cc1ccc(N2CCCCC2)cc1 9.57%
C[C@]12CC[C@H]3[C@@H](CCC4=CC(=O)CC[C@@]43C)[C@@H]1CC[C@@H]2C(=O)CO 3.56%
COc1cc(C=NCC2OCCc3ccccc32)cc(OC)c1 (configuration not stated) -6.43%
COc1cc(NS(=O)(=O)c2ccc(N)cc2)nc(OC)n1 -10.3%
O=C(O)c1cc(-c2ccc3c(c2)OCO3)nc2ccc(Br)cc12 -1.26%
CC(C)c1ccc(OCc2ccc(C(=O)O)o2)cc1 -1.94%
O=C(c1ccco1)N1CCCN(Cc2nc(-c3ccc4c(c3)OCO4)no2)CC1 9.36%
CCOC(=O)c1ccc(N2C(=O)C(CC(=O)NC)N(CCc3ccc(OC)c(OC)c3)C2=S)cc1 (configuration not stated) -1.7%
CC(=O)CC(c1ccc([N+](=O)[O-])cc1)c1c(O)c2ccccc2oc1=O (configuration not stated) -0.46%
CCCCCCCCNC(C)C(O)c1ccc(SC(C)C)cc1 (configuration not stated) -31.6%
c1ccc(SSc2ccccc2)cc1 -5.71%
COc1ccc2[nH]c(C)c(CN3CCC(C)CC3)c(=O)c2c1 -4.66%
Cc1ccccc1C(=O)NCC(=O)O 3.06%
Clc1ccc2c(c1)[C@H]1OCC[C@H]1[C@@H](c1ccco1)N2 9.61%
COc1ccc2cc(C3(C)NC(=O)NC3=O)ccc2c1 (configuration not stated) -13%
Cc1ccccc1OCCSc1nc2ncnc(N)c2[nH]1 -10.3%
COc1ccc2nc(S(=O)Cc3ncc(C)c(OC)c3C)[nH]c2c1 (configuration not stated) 27.6%
O=CNC1CCCc2c1[nH]c1ccc(Cl)cc21 (configuration not stated) -3.92%
CCCC(=O)O[C@]1(C(=O)CO)CC[C@H]2[C@@H]3CCC4=CC(=O)CC[C@]4(C)[C@H]3[C@@H](O)C[C@@]21C 2.01%
O=c1cc(CN2CCN(c3cccc(Cl)c3)CC2)c2cc(O)c(-c3ccccc3)cc2o1 3.36%

inhibition, active:
COc1ccc2c(c1)C=CC1(O2)N(CCO)c2ccccc2C1(C)C (configuration not stated) 50.9%
COc1ccc(C2=CC(=O)C=CC2=O)cc1 69.1%
